Reference: a collection of fitness landscapes (doi:10.1038/s41467-024-54723-y)
Over roughly 18,000 sequences, “TetR repression strength (sort-seq, GFP reporter)” has its median near 0.23; the highest 2% begin near 0.68. Some of the results follow.

Each sequence was assayed against TetR (class B, Tn10) (UniProt P04483) (assay: TetR repression strength (sort-seq, GFP reporter) (relative to tetO2 = 1); higher = stronger repression). Conditions: E. coli.
How it was run: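 In LB with 50 µg/mL chloramphenicol, E. coli SIG10-MAX holding a low-copy library with eight randomized operator positions between a constitutive promoter and sfGFP, plus constitutive TetR, grew for 5 h at 37 °C. FACS then sorted 10^6 cells into 13 fluorescence bins for Illumina sequencing of each bin. Repression strength equals the top bin index plus one less the read-weighted mean bin, normalized to the unaltered operator. Values from three independent transformations were averaged when reads were ≥30 in every replicate and the CV was ≤0.5.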

UniProt P04483, sequence (P04483 whole entry): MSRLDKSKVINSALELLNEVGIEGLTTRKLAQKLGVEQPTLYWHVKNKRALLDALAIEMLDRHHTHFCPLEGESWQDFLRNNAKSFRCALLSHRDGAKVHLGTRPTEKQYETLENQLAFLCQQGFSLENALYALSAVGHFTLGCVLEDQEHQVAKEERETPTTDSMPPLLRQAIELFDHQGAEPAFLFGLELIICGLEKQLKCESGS

Sequence | TetR repression strength
TCCCTCTCAGTGCTAGAGA | 0.599
TCCCTTGTAGTGCGAGAGA | 0.233
TCCCAGGGAGTATATGAGA | 0.44
TCCCTTTGAGTTTGTGAGA | 0.188
TCCCGGTGAGTGGTGGAGA | 0.107
TCCCACCAAGTTTTGGAGA | 0.266
TCCCGCAGAGTCTAGGAGA | 0.185
TCCCAGGTAGTATTCGAGA | 0.17
TCCCACGGAGTGCGAGAGA | 0.237
TCCCTGGCAGTGGCCGAGA | 0.225
TCCCTATGAGTGTGGGAGA | 0.223
TCCCAACCAGTGACTGAGA | 0.27
TCCCAAAGAGTGCATGAGA | 0.207
TCCCGGCCAGTCGGGGAGA | 0.331
TCCCTGCTAGTCCGGGAGA | 0.334
TCCCGAAAAGTATTGGAGA | 0.207
TCCCCCGCAGTTGTGGAGA | 0.119
TCCCCGGGAGTTGGTGAGA | 0.276
TCCCCAAGAGTACCCGAGA | 0.261
TCCCTTTAAGTAAGTGAGA | 0.247
TCCCAGTGAGTGTTCGAGA | 0.277
TCCCAGGAAGTATGCGAGA | 0.304
TCCCTCTAAGTGTGGGAGA | 0.266
TCCCATTTAGTGTTCGAGA | 0.119
TCCCGTGGAGTTTACGAGA | 0.145
TCCCAAGGAGTAGGTGAGA | 0.182

Sequence | TetR repression strength
TCCCACCCAGTGCGAGAGA | 0.306
TCCCTGAGAGTCATTGAGA | 0.112
TCCCAGCGAGTCGTAGAGA | 0.232
TCCCGTGCAGTTCCAGAGA | 0.226
TCCCAGGTAGTCGGCGAGA | 0.113
TCCCCGCCAGTCTAGGAGA | 0.681
TCCCACGGAGTTAGTGAGA | 0.352
TCCCGACAAGTCATTGAGA | 0.329
TCCCACGAAGTTCGAGAGA | 0.258
TCCCTGGGAGTACAGGAGA | 0.192
TCCCAGGTAGTTATGGAGA | 0.319
TCCCCCTTAGTGGAGGAGA | 0.243
TCCCGTGGAGTTCGTGAGA | 0.292
TCCCGTTAAGTAGGCGAGA | 0.23
TCCCGAGCAGTGGGGGAGA | 0.178
TCCCGGGGAGTAAGAGAGA | 0.106
TCCCTTTTAGTATACGAGA | 0.242
TCCCGTAAAGTGCAGGAGA | 0.213
TCCCATGGAGTGCTGGAGA | 0.407
TCCCTCCGAGTCGGAGAGA | 0.185
TCCCTCAGAGTTGCGGAGA | 0.199
TCCCGTGGAGTCACTGAGA | 0.171
TCCCTGGCAGTGCGCGAGA | 0.135
TCCCCTTCAGTATGGGAGA | 0.214
TCCCCTATAGTTGGAGAGA | 0.137
TCCCTAATAGTCAACGAGA | 0.444

Sequence | TetR repression strength
TCCCTATAAGTAGCGGAGA | 0.217
TCCCATTAAGTCAATGAGA | 0.42
TCCCGTGGAGTCGTCGAGA | 0.253
TCCCAACAAGTGATTGAGA | 0.442
TCCCAGCTAGTGACCGAGA | 0.694
TCCCTGGAAGTCATTGAGA | 0.197
TCCCAGACAGTGGGTGAGA | 0.279
TCCCGCAAAGTCCTCGAGA | 0.514
TCCCCTTAAGTTCGGGAGA | 0.0495
TCCCGATAAGTTGTCGAGA | 0.166
TCCCGTCGAGTATTAGAGA | 0.317
TCCCGGATAGTGCATGAGA | 0.144
TCCCGTCAAGTTCGGGAGA | 0.155
TCCCCAAAAGTCTGGGAGA | 0.239
TCCCGATTAGTAAACGAGA | 0.247
TCCCCTCGAGTCAGGGAGA | 0.221
TCCCGCGGAGTGTACGAGA | 0.18
TCCCGGGAAGTGGCGGAGA | 0.139
TCCCCGAGAGTGGGAGAGA | 0.196
TCCCTAGTAGTATAAGAGA | 0.0853
TCCCAATTAGTCACAGAGA | 0.358
TCCCGGGAAGTTACCGAGA | 0.207
TCCCTCGAAGTAAGTGAGA | 0.296
TCCCTAGGAGTCCTTGAGA | 0.227
TCCCAATCAGTGAACGAGA | 0.613
TCCCAGACAGTGTTAGAGA | 0.303

Sequence | TetR repression strength
TCCCATAAAGTTCAAGAGA | 0.224
TCCCTTGGAGTCGCCGAGA | 0.404
TCCCAGTCAGTCGGGGAGA | 0.776
TCCCAAGGAGTCGGGGAGA | 0.212
TCCCAACCAGTCCTTGAGA | 0.346
TCCCATTTAGTTACGGAGA | 0.16
TCCCGACGAGTATCGGAGA | 0.0681
TCCCCTTAAGTGTGCGAGA | 0.448
TCCCTGGGAGTGCGAGAGA | 0.303
TCCCGGATAGTATTGGAGA | 0.311
TCCCCGCAAGTCGTGGAGA | 0.212
TCCCTGCAAGTATGTGAGA | 0.33
TCCCGGATAGTCTCCGAGA | 0.18
TCCCCTATAGTACCTGAGA | 0.263
TCCCCAAAAGTTACGGAGA | 0.153
TCCCGTTAAGTGGGGGAGA | 0.198
TCCCTCAGAGTGTAGGAGA | 0.181
TCCCTGGAAGTGGTTGAGA | 0.183
TCCCTTGGAGTGTTGGAGA | 0.257
TCCCTCGGAGTGCGCGAGA | 0.252
TCCCAGAAAGTACCTGAGA | 0
TCCCTGATAGTGATCGAGA | 0.362
TCCCCGAAAGTCTTCGAGA | 0.2
TCCCGGCAAGTGGACGAGA | 0.211
